We go through 111 compounds from PubChem BioAssay AID1240 (Sanford-Burnham Center for Chemical Genomics, 2008).

Screen size: about 50,000 compounds; about 800 (1.6%) showed an effect of 50% or more. Some of the results follow.

This experiment deals with Bcl-2-like protein 10 (Homo sapiens) (UniProt Q9HD36). The experiment in a line: TR3 peptide-Bcl-B binding displacers, biochemical primary FP assay, phenotype converters (AID 1240).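 Also: 0% = Bcl-B with tracer peptide and DMSO and 100% = tracer peptide lacking Bcl-B.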 Particulars: GST-Bcl-B / FITC-TR3 peptide fluorescence polarization; stronger effect = higher value; compound at 3.75 mg/L.
UniProt Q9HD36, sequence (Q9HD36 whole entry, looked up): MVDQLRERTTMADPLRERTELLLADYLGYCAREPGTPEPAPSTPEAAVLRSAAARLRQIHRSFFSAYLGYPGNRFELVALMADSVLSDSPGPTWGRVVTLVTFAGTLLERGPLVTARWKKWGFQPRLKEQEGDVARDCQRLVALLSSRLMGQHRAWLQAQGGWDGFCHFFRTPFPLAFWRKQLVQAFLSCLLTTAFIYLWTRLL
Consider `Cc1c(N2C(=O)/C(=C3/C(=O)N(CC(N)=O)c4ccccc43)SC2=S)c(=O)n(-c2ccccc2)n1C`, for which the displacement was -11.3%.

Consider `Cc1nc(-c2cccc(NC(=O)c3cccnc3)c2)cs1`, for which the displacement is -2.2%.

Take `COc1ccc2c(c1)CC/C2=N\OC(=O)c1cccc2ccccc12`: the displacement came out at 9.4%.

As for `COc1ccccc1CNC(=O)c1cccc(N(C)C)c1`, the displacement was 2.6%.

`CCOC(=O)C(CCOc1cc(C)cc(C)c1C)C(=O)OCC`: the displacement is 13.1%.

As for `CCOC(=O)c1c(C)oc2cc(Br)c(O)c(C=O)c12`, the displacement stood at 14.9%.

For the compound `Cc1ccc(S(=O)(=O)N2CCCC2)cc1[N+](=O)[O-]`, the displacement was -9.3%.

Take `CCOc1cc(/C=C2\C(=O)NC(=O)N(c3ccc(Br)c(C)c3)C2=O)ccc1OC`: the displacement was found to be 41.5%.

Regarding `O=C(NCc1cccnc1)/C(=C/c1cccc(Oc2ccccc2)c1)NC(=O)c1ccccc1`, the displacement worked out at 9%.

With `O=C(N/N=C/c1ccccn1)c1cccc([N+](=O)[O-])c1`, the displacement came to 0%.

`CCN(C(=O)c1ccc(Cl)c([N+](=O)[O-])c1)c1ccccc1C`: the displacement was -9%.

Turning to `CN(C)Cc1c(O)ccc2c(=O)c(-c3ccccc3)coc12`, the displacement is 1.4%.

As to `O=C(O)CSCC(NC(=S)Nc1ccccc1)C(=O)O` (stereo unspecified), the displacement was -17.6%.

As to `CC(=O)Nc1ccc(S(=O)(=O)NC(c2ccccc2)c2ccccc2)cc1`, the displacement is -0.9%.

Take `N#CC1=C(N)Oc2c(c(=O)oc3ccccc23)C12C(=O)Nc1ccc(Br)cc12` (stereo unspecified): the displacement amounted to 2.7%.

`OCCNC1CCCc2c1[nH]c1ccc(-c3ccccc3)cc21` (stereo unspecified): the displacement came out at 12.4%.

Turning to `CCOC(=O)c1c(C)nc(C)nc1NC(=O)c1ccccc1`, the displacement is -5.5%.

Regarding `COc1ccc(N(CC(=O)N2CCCC2)S(C)(=O)=O)cc1`, the displacement turned out to be 7.8%.

`C=C1c2ccc(C)cc2NC(=O)N1c1cccc(Cl)c1`: the displacement is 12.9%.

In the case of `CCOc1ccc(N/C(N)=N\c2nc(C)cc(C)n2)cc1`, the displacement came to 1.1%.

As to `O=C(Nc1ccccc1C(=O)NCCO)c1ccccc1Cl`, the displacement is -7.4%.

On to `COCCCNC(=O)CN(c1ccc(C)cc1)S(=O)(=O)c1ccc(SC)cc1`, for which the displacement stood at 8.4%.

As for `c1ccc(OCc2nc(-c3cccnc3)no2)cc1`, the displacement amounted to 5.8%.

For the compound `COc1ccccc1NC(=O)c1cc(I)ccc1Cl`, the displacement stood at 9.3%.

Turning to `CCOc1cc(C2Nc3ccccc3C(=O)N2Cc2ccco2)ccc1OCc1ccccc1Cl` (stereo unspecified), the displacement was determined as 12.4%.

Consider `COc1cc(NC(=O)COc2cc(C)c(Cl)c(C)c2)cc(OC)c1`, for which the displacement was -1.6%.

On to `Cc1nc(-c2ccccc2)nc(N/N=C/c2ccncc2)c1C`, for which the displacement was -5.8%.

Take `N#Cc1cc([N+](=O)[O-])cnc1Sc1ccccc1`: the displacement came out at 14.5%.

Regarding `CSCCC(C(=O)O)N1C(=O)/C(=C\c2ccc(-c3ccc([N+](=O)[O-])cc3)o2)SC1=S` (stereo unspecified), the displacement is -97.4%.

Take `COc1ccc(OC)c(CN2CCN(C(=O)c3ccc(OC)c(OC)c3)CC2)c1`: the displacement was -6.3%.

Regarding `COCCNS(=O)(=O)c1ccc(OC)c(Br)c1`, the displacement is -2.2%.

Take `COC(=O)CSc1nc(N)c2c3c(sc2n1)CCC3`: the displacement was -4.3%.

In the case of `CC(C)Oc1ccccc1C1Nc2ccccc2NC2=C1C(=O)CC(c1ccc(Cl)cc1)C2` (stereo unspecified), the displacement is -2.8%.

On to `O=C(CSc1nc(-c2ccccc2)c(-c2ccccc2)o1)Nc1ccccc1`, for which the displacement was -4.2%.

With `Cc1cc2ncn(C(=O)N3CCOCC3)c2cc1C`, the displacement stood at 1.4%.

In the case of `CCOC(=O)c1ccc(NC(=O)c2ccc(Cl)cc2Cl)cc1`, the displacement is -7.8%.

For `O=C(NC(=S)Nc1ccc(Cl)cc1Cl)c1ccco1`, the displacement was 14.1%.

In the case of `Cc1ccc(S(=O)(=O)N/N=C/c2ccccc2C(F)(F)F)cc1`, the displacement was -8.8%.

Turning to `O=C(Nc1ccc(F)cc1)Nc1cccc2cccnc12`, the displacement was found to be 5.9%.

Take `COC(=O)c1ccc(N2C(=O)c3ccc4c5c(ccc(c35)C2=O)C(=O)N(c2ccc(C(=O)OC)cc2)C4=O)cc1`: the displacement turned out to be 11.6%.

Consider `O=S1(=O)N=C(OCc2ccccc2)c2ccccc21`, for which the displacement was -4.7%.

For the compound `O=C(NCCCN1CCOCC1)c1ccc(F)cc1`, the displacement amounted to 1.7%.

As to `Fc1cccc(Cl)c1-c1nnc2ccc(C(F)(F)F)cn12`, the displacement is -5%.

In the case of `COC(=O)c1cc(N=NC2=C(O)CC(C)(C)CC2=O)cc(C(=O)OC)c1`, the displacement is -7.3%.

Take `CCOc1ccc(C(=O)Nc2ccccc2OC)cc1[N+](=O)[O-]`: the displacement was -1.9%.

For the compound `COc1ccc(/C=C2/SC(=O)N(CC(=O)Nc3cc(C)on3)C2=O)cc1OC`, the displacement turned out to be 12.8%.

As to `Cc1oc(C(=O)O)cc1CSCc1ccoc1C(=O)O`, the displacement worked out at 0.6%.

On to `C/C=C/C(=O)N1c2ccc(C)cc2-c2c(ssc2=S)C1(C)C`, for which the displacement is 3.9%.

Turning to `CCOc1ccc(C(=O)N2CCN(c3ccccc3)CC2)cc1OCC`, the displacement is -0.6%.

Turning to `CCc1ccc(NC(=O)C2CCCCC2C(=O)O)cc1` (stereo unspecified), the displacement is -5.7%.

For the compound `Cc1ccc(C)c(NC(=O)CSc2nnc(C)s2)c1`, the displacement was determined as 0.8%.

As for `COc1ccc(OCC(=O)Nc2ccc(NC(=O)c3ccco3)c(OC)c2)cc1`, the displacement is 17.1%.

As for `Cc1cccc(NC(=O)/C(=C\c2ccccc2Cl)NC(=O)c2ccccc2)c1`, the displacement was 3.5%.

`O=C(CN(c1ccccc1)S(=O)(=O)c1ccccc1[N+](=O)[O-])N1CCCCC1`: the displacement was -2.3%.

With `COc1ccc(N(CC(=O)Nc2ccccc2Br)S(=O)(=O)c2ccccc2)cc1`, the displacement was determined as 11.2%.

Consider `N#Cc1c(NC(=O)CO/N=C/c2ccccc2)sc2c1CCCC2`, for which the displacement amounted to 3.7%.

Consider `Cc1ccnc(NS(=O)(=O)c2ccc(NS(=O)(=O)c3ccc([N+](=O)[O-])cc3)cc2)n1`, for which the displacement was -11%.

Consider `O=C(Nc1ccccc1)c1ccccc1O`, for which the displacement is -7.2%.

With `COc1ccc(/C=C2\SC(=S)N(CCCC(=O)Nc3c(C)n(C)n(-c4ccccc4)c3=O)C2=O)cc1`, the displacement was determined as 120%.

`O=C(CCC(NC(=O)OCc1ccccc1)C(=O)OCc1ccccc1)Oc1ccc([N+](=O)[O-])cc1` (stereo unspecified): the displacement was determined as 9.1%.

On to `Cc1ccc(NC(=O)c2ccc(-c3cccc(Cl)c3)o2)c([N+](=O)[O-])c1`, for which the displacement stood at 11.6%.

With `NS(=O)(=O)c1ccc(NC(=O)c2ccccc2[N+](=O)[O-])cc1`, the displacement was 8.4%.

For `Cc1sc2nc(SCC(=O)N3CCN(CCO)CC3)[nH]c(=O)c2c1C`, the displacement is -10.4%.

`COc1ccc(N2CCSC2C(=O)c2ccccc2)cc1` (stereo unspecified): the displacement came out at 9.2%.

As to `COc1cccc(OC)c1C(=O)Nc1ccccc1I`, the displacement was 13.2%.

Regarding `O=C(O)CCC(=O)Nc1ccc(NC(=O)c2ccc(Cl)cc2Cl)c(Cl)c1`, the displacement was 13.8%.

For the compound `CC(C)CC(=O)N1CCN(Cc2ccncc2)CC1`, the displacement is -5.8%.

Take `CCCCOC(=O)c1ccc(NC(C)=O)cc1`: the displacement was determined as 15.2%.

With `Cc1[nH]c2ccc(S(N)(=O)=O)cc2c1C`, the displacement was -3.4%.

With `Cc1cccc(OCC(=O)O/N=C(\N)Cc2ccc(Cl)cc2)c1`, the displacement is 6.6%.

For `C=CCOc1nc(-c2cccnc2)nc2ccccc12`, the displacement stood at 14.9%.

In the case of `COc1cccc(N2C(=O)CC(NCc3ccc(S(N)(=O)=O)cc3)C2=O)c1` (stereo unspecified), the displacement is -3%.

With `COc1ccc2nc(NC(=O)c3ccccc3O)sc2c1`, the displacement turned out to be 0.4%.

With `Cc1ccc(OCCOc2ccc(/C=N/n3cnnc3)cc2)cc1`, the displacement was -8.3%.

`CCOc1cc(/C=N/NC(=O)COc2cccc(C)c2)ccc1OC(=O)c1cccs1`: the displacement was -0.9%.

Regarding `CN(C)c1ccc(/C=N/NC(=O)Cn2c3ccccc3c(=O)c3ccccc32)cc1[N+](=O)[O-]`, the displacement was 2.3%.

Regarding `FC(F)(F)c1ccccc1CN1CCN(Cc2c[nH]c3ccccc23)CC1`, the displacement is -5.2%.

With `CCOC(=O)CSc1nnc(-c2ccccc2)c(-c2ccccc2)n1`, the displacement is -5.3%.

For the compound `C=CCNC(=S)Nc1c(C)n(C)n(-c2ccccc2)c1=O`, the displacement was determined as 0.4%.

With `C1=C(c2ccc3c(c2)c2c4n3CCN(Cc3ccccc3)C4CCC2)C2CCN1CC2` (stereo unspecified), the displacement worked out at 11.6%.

`O=C1NC(=O)C(=Cc2cn(CCOc3ccc(Br)cc3)c3ccccc23)C(=O)N1`: the displacement was determined as 73.8%.

In the case of `CCN(CC)c1ccc(C(=O)Nc2ccccc2F)cc1`, the displacement turned out to be 10.5%.

In the case of `O=C(N/N=C/c1cccc(O)c1)c1cncc(Br)c1`, the displacement worked out at 1.4%.

`O=C1N=c2ccccc2=C1c1sc(Nc2ccc(O)cc2)nc1O`: the displacement came out at 40.6%.

In the case of `Cc1ccoc1C(=O)NCc1ccccc1`, the displacement is 9.5%.

Consider `O=C1c2ccccc2C(=O)N1C/C=C/CN1C(=O)c2ccccc2C1=O`, for which the displacement stood at 9%.

With `O=C(CSc1ncccn1)N/N=C/c1ccccc1O`, the displacement is -5%.

Consider `O=[N+]([O-])c1cnc(-c2ccccc2)nc1`, for which the displacement is -3.2%.

Turning to `CCOC(=O)c1c(C)oc2cc(Br)c(OC(C)C(=O)OCC)cc12` (stereo unspecified), the displacement was found to be 10.4%.

For `COc1ccc(CCNC(=O)c2cccc(F)c2)cc1`, the displacement is -16.9%.

Regarding `O=C1NC(=S)NC(=O)C1=Cc1ccccc1OS(=O)(=O)c1ccc([N+](=O)[O-])cc1`, the displacement is -7.8%.

On to `O=C(CCc1ccccc1)NNC(=O)c1ccc(Cl)cc1Cl`, for which the displacement is -14.9%.

In the case of `O=c1c2cnn(-c3ccccc3)c2nc(-c2ccccc2)n1-c1cccc(Cl)c1`, the displacement is 7.9%.

Regarding `O=C(NCc1ccccc1)c1ccncc1`, the displacement was -1.5%.

As to `COc1cccc(C(=O)NC(NC(=S)Nc2cc(Cl)ccc2Cl)C(Cl)(Cl)Cl)c1` (stereo unspecified), the displacement is 14.6%.

As to `CC1(C)Cc2ccccc2C(N/N=C/c2c(O)ccc3ccccc23)=N1`, the displacement was -1.7%.

Consider `COc1cc(-c2noc(-c3ccc(Br)cc3)n2)cc(OC)c1OC`, for which the displacement is 11%.

`COc1ccc(Br)cc1C=NN1CCN(Cc2ccccc2)CC1`: the displacement was -6%.

Consider `CC(C)(C)NC(=O)c1cc(NC(=O)c2cccs2)cc(NC(=O)c2cccs2)c1`, for which the displacement was -17.9%.

Regarding `Cc1ccc(S(=O)(=O)/N=C2/C=C(S(=O)(=O)c3ccc(C)cc3)C(=O)c3ccccc32)cc1`, the displacement is 5.6%.

As to `CCOc1ccc(NC(=O)c2c(N)sc(-c3ccccc3)c2C)cc1`, the displacement was -0.3%.

On to `Nc1sc2c(c1C(=O)Nc1cccc3ccccc13)CCC2`, for which the displacement is -11.2%.

Turning to `Cc1ccccc1-c1nnc(NC(=O)Nc2ccc(Cl)c(Cl)c2)s1`, the displacement was 0.3%.

For `COc1ccccc1C(=O)NC(NC(=O)c1ccccc1OC)c1ccc(F)cc1`, the displacement is -1.7%.

In the case of `Cc1cc(C)cc(CSCC(=O)NCCSc2ccccc2)c1`, the displacement was -5.3%.

For the compound `CCOC(=O)c1c(NC(=O)c2ccc(OC)cc2)sc(C(=O)Nc2ccccc2C(F)(F)F)c1C`, the displacement is -16.3%.

`COc1ccccc1C1/C(=C(\O)c2ccc(Cl)cc2)C(=O)C(=O)N1CCCCCC(=O)O` (stereo unspecified): the displacement was determined as 3.4%.

In the case of `O=C(CSc1nnc(SCC(=O)Nc2ccc(F)cc2)s1)Nc1ccc(F)cc1`, the displacement was determined as 9.8%.

Turning to `Cc1ccccc1OCCOc1cccc(/C=N/n2cnnc2)c1`, the displacement is -10.8%.

As to `C=CCc1cccc2cc(C(=O)Nc3ccc(C)cc3[N+](=O)[O-])c(=O)oc12`, the displacement turned out to be 11.2%.

As to `COc1ccccc1OCCCCNC(C)(C)C`, the displacement worked out at 7.5%.
